{"source": "paper PMC5589798", "about": "“Alpha subunit-dependent glycine receptor clustering and regulation of synaptic receptor numbers” (Scientific Reports, 2017)", "binders": {"B1": {"name": "Dendra2-GlyRβ (FU-SP-myc-Dendra2-GlyRβ) (receptor)", "chain": "not shown", "notes": "human glycine receptor beta subunit; source: COS-7, transfected (FuGENE 6), in cells; spinal cord neurons, lentivirus infected, in cells; not shown: myc, N-terminal, kept; Dendra2, N-terminal, kept"}}, "key": {"untagged GlyRα1": {"target": "T1, untagged GlyRα1 (UniProt P07727 29-457)", "T1 construct": "glycine receptor alpha-1 subunit, untagged; also called untagged α1 subunits; non-fluorescent subunits; source: COS-7, transfected, in cells", "T1 sequence (looked up)": "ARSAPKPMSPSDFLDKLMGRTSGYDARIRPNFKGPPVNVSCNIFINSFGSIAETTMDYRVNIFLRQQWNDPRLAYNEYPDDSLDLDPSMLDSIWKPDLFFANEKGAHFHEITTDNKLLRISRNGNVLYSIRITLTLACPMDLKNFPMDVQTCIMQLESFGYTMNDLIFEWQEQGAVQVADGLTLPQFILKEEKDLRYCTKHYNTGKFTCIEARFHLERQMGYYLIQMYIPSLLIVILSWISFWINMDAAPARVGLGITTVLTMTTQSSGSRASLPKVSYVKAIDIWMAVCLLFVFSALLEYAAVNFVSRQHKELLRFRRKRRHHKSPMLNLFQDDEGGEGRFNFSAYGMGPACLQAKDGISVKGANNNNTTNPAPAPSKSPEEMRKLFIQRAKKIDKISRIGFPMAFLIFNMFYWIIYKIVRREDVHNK", "assay": "PALM-based single molecule counting; fixed transfected COS-7 cells; bursts of Dendra2 detections counted in 120 nm clusters, binomial fit; Dendra2-GlyR subunits alone or with untagged subunits", "conditions": "partners not purified"}, "untagged GlyRα3": {"target": "T2, untagged GlyRα3 (UniProt O75311 34-464)", "T2 construct": "glycine receptor alpha-3 subunit, untagged; also called untagged α subunits; non-fluorescent subunits; source: COS-7, transfected, in cells", "T2 sequence (looked up)": "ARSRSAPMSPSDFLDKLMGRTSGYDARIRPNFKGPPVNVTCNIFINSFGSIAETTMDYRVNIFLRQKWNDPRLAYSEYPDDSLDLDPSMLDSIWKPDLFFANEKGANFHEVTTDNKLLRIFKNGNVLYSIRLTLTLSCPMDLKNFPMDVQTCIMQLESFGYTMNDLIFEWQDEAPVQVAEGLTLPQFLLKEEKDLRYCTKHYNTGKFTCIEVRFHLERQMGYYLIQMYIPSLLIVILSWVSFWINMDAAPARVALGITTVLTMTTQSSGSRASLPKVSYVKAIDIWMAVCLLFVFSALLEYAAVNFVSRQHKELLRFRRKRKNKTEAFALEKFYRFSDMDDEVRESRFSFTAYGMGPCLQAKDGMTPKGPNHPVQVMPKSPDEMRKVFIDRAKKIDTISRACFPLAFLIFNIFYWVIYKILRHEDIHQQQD", "assay": "PALM-based single molecule counting; fixed transfected COS-7 cells; bursts of Dendra2 detections counted in 120 nm clusters, binomial fit; Dendra2-GlyR subunits alone or with untagged subunits", "conditions": "partners not purified"}}, "data": [{"binder": "B1", "values": [{"measurement": "stoichiometry N", "setting": "untagged GlyRα1", "result": "2 β subunits per complex"}, {"measurement": "stoichiometry N", "setting": "untagged GlyRα3", "result": "2 β subunits per complex"}]}]}
